# Test results from PubChem BioAssay AID624173 (National Center for Advancing Translational Sciences (NCATS), 2012).
# The campaign covered roughly 410,000 compounds. About 490 (0.12%) were called active. This list was built around the results that the source calls inconclusive (neither active nor inactive); the mix of calls is not that of the screen. Calls come from the whole dose curve; as a rule, active = well fitted inhibition curve with a large enough effect; inconclusive = small, poorly fitted or top-dose-only effect; inactive = flat fitted curve, though single readings scatter. Potencies of inconclusive entries are doubtful fits and often do not repeat.
# Target: pyruvate kinase (Trypanosoma brucei) (UniProt Q57TT1)
# Assay: qHTS of Trypanosoma Brucei Inhibitors; note: nearly all actives have a fitted effect of over 50% in size
# Conditions: TbPYK enzyme, Kinase-Glo Plus ATP luminescence, 45 min; series mostly up to 76.8 µM; activity, negative = inhibition: at the top concentration
# Procedure, shortened: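 Glycolytic pyruvate kinase of T. brucei was incubated with substrate, test compound and 130 uM ADP for 45 minutes at room temperature. Luminescent Kinase-Glo Plus signal was measured after 10 minutes.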
# % is set by controls: 0 for no effect and ±100 for the full control effect; potency is the fitted concentration of half-maximal effect; tags give direction and shape of the fitted curve.
Structure (SMILES),Potency,"activity, negative = inhibition"
Cn1c2c(c(=O)n(C)c1=O)C(c1ccccc1Cl)C(C#N)=C(N)O2 (stereo unspecified),"inconclusive: 31.6 µM [inhibitor, single point]",–
CCCOC(=O)c1c(-c2ccc(C)cc2C)csc1NC(=O)C1C2CCC(O2)C1C(=O)O (stereo unspecified),"inconclusive: 12.6 µM [inhibitor, partial curve]",–
COc1ccc(C(=O)C[n+]2ccccc2C)cc1,"inconclusive: 44.7 µM [inhibitor, single point]",–
CS(=O)(=O)c1ccc(C(=O)OC2CCOC2=O)cc1[N+](=O)[O-] (stereo unspecified),–,inactive: -0.288%
COc1ccc(-n2c(CNC(=O)c3ccc(S(=O)(=O)N4CCCC4)cc3)n[nH]c2=S)cc1,"inconclusive: 6.31 µM [inhibitor, partial curve]",–
CCOC(=O)c1c(-n2c(C)cc(C=C3C(=O)NC(=S)NC3=O)c2C)sc2c1CCCC2,"inconclusive: 10 µM [inhibitor, partial curve]",–
CC1(C)CC(N2CCN(c3ccccc3)CC2)=CC(=[N+]2CCCC2)C1,–,inactive: -3.14%
COC(=O)CSc1nnc(-c2sc3cc(OC)ccc3c2Cl)n1C,"inconclusive: 35.5 µM [inhibitor, partial curve, poor fit]",–
Cc1occc1-c1nnc(SCc2nnc(-c3ccc(Cl)cc3)o2)n1C,"inconclusive: 31.6 µM [inhibitor, partial curve, poor fit]",–
CCc1ccc(/C=N/Nc2nn[nH]n2)cc1,"inconclusive: 31.6 µM [inhibitor, single point]",–
COc1ccc(NC2=C(C(C)=O)C(c3ccc(N(C)C)cc3)C(C(C)=O)C(C)(O)C2)cc1 (stereo unspecified),"inconclusive: 35.5 µM [inhibitor, single point]",–
O=C(c1ccco1)N1CCN(C(=O)C(Cc2ccccc2)NS(=O)(=O)c2cccs2)CC1 (stereo unspecified),"inconclusive: 50.1 µM [inhibitor, single point]",–
CCc1c(C)c(C#N)c2[nH]c3ccccc3n2c1=S,active: 14.1 µM,–
CN(C)CCn1c(=O)n(Cc2ccco2)c(=O)c2c3c(sc21)CCCCC3,–,inactive: -14.3%
COc1ccc(-n2ccnc2SCC(=O)Nc2nnc(C)s2)cc1,–,inactive: 8.39%
CCOc1ccc(NC(=S)NC(=O)c2ccco2)cc1,–,inactive: -4.19%
CCOC(=O)N/N=C\c1ccc(OC(=O)c2ccc3c(c2)OCO3)cc1,–,inactive: -2.44%
COc1cccc(NC(=O)COc2ccc(S(=O)(=O)NC(C)C)cc2)c1,"inconclusive: 50.1 µM [inhibitor, single point]",–
C=CCn1c(SCC(=O)NCCC2=CCCCC2)nc2ccc(Cl)cc2c1=O,"inconclusive: 44.7 µM [inhibitor, single point]",–
COCc1n[nH]c(=S)n1-c1cccc2ccccc12,"inconclusive: 28.2 µM [inhibitor, partial curve, poor fit]",–
COc1ccc(C)cc1NC(=O)C1COc2ccccc2C1 (stereo unspecified),–,inactive: -8.61%
COc1ccc(C(=O)Nc2ccccc2C(=O)N/N=C/c2ccc(O)c(OC)c2)cc1,"inconclusive: 25.1 µM [inhibitor, single point]",–
c1ccc(Cc2nn3c(C4COc5ccccc5O4)nnc3s2)cc1 (stereo unspecified),"inconclusive: 12.6 µM [inhibitor, partial curve, poor fit]",–
CC(=O)Nc1cc(-c2ccc(N)nc2)cn2c(-c3cccc(C(F)(F)F)c3)cnc12,–,inactive: -0.942%

Structure (SMILES),Potency,"activity, negative = inhibition"
Cc1cc(-c2ccccc2)nc(N/N=C/c2ccccc2)n1,–,inactive: -13%
CCn1c(COc2ccccc2OC)nc2ccccc21,–,inactive: -1.27%
Cn1ncc(Cl)c1C(=O)Nc1cccc(Cl)c1,"inconclusive: 31.6 µM [inhibitor, partial curve, poor fit]",–
CCN1C(C(=O)c2ccccc2)=C(OC(=O)c2ccc(OC)cc2)c2ccccc2S1(=O)=O,–,inactive: 2.9%
COc1cccc(N2C(=O)/C(=C/c3ccc(C)o3)C(=O)NC2=S)c1,"inconclusive: 8.91 µM [inhibitor, partial curve, poor fit]",–
CC(=O)C1=C(c2ccc(Br)cc2)C(=O)c2ccccc2C1=O,–,inactive: -5.53%
Cc1ccc(Nc2ncc3c(n2)CC(c2ccco2)CC3=O)c(C)c1 (stereo unspecified),–,inactive: -23.3%
COc1cccc(CNC(=O)CCn2c(=O)c3cccn3c3ccc(F)cc32)c1OC,–,inactive: 0.895%
Cc1nn(S(=O)(=O)c2ccc(Cl)cc2)c(C)c1Sc1ccc([N+](=O)[O-])cc1,–,inactive: -1.29%
CCN1C(c2ccccc2)=C(c2ccccc2)S/C1=C\C=C1/SC(=S)N(C)C1=O,"inconclusive: 17.8 µM [inhibitor, partial curve]",–
Cc1ccccc1NC(=S)c1nc2ccccc2[nH]1,–,inactive: -2.26%
CC1(c2ccccc2)NC(=O)N(CC(=O)NCc2cccc(Cl)c2)C1=O (stereo unspecified),–,inactive: -11.8%
Cc1cc(=O)oc2cc(OCC(=O)N3CCOCC3)ccc12,"inconclusive: 31.6 µM [inhibitor, partial curve, poor fit]",–
Cc1ccc(NC(=O)c2ccc3c(c2)OCCO3)cc1C,–,inactive: 0.159%
Cn1c(-c2ccccc2)n[nH]c1=S,"inconclusive: 7.94 µM [inhibitor, partial curve, poor fit]",–
COc1ccc(C)cc1NC(=O)CN(Cc1nnc(-c2ccc(Cl)cc2)o1)C1CCCC1,"inconclusive: 44.7 µM [inhibitor, single point]",–
COC(=O)c1ccc2c(=O)n(Cc3ccc(C(=O)NCCCN4CCC(C)CC4)cc3)c(=S)[nH]c2c1,"inconclusive: 25.1 µM [inhibitor, partial curve]",–
CCN1CCN(C(=S)c2ccc(O)cc2)CC1,"inconclusive: 25.1 µM [inhibitor, partial curve, poor fit]",–
O=C(CSc1nnc(-c2cccnc2)n1-c1ccc(F)cc1)NCc1ccc2c(c1)OCO2,"inconclusive: 28.2 µM [inhibitor, single point]",–
COc1ccccc1Cn1[nH]nnc1=S,"inconclusive: 17.8 µM [inhibitor, partial curve, poor fit]",–
CC1CN=C(Nc2ccc(F)cc2)S1 (stereo unspecified),–,inactive: -6.99%
O=C(c1ccc2c3n(nc2c1)-c1ccccc1CO3)N1CCOCC1,active: 17.8 µM,–
CCN(C(=O)COC(=O)CSc1ccc([N+](=O)[O-])cc1)C1CCS(=O)(=O)C1 (stereo unspecified),"inconclusive: 39.8 µM [inhibitor, partial curve, poor fit]",–
Nc1c(-c2ccccn2)cnn1-c1nc(-c2ccc(F)cc2)cs1,–,inactive: 5.29%

Structure (SMILES),Potency,"activity, negative = inhibition"
O=C(N/C(=C\c1ccco1)C(=O)N1CCCC1)c1ccccc1,–,inactive: -3.3%
Cc1ccc(CN2CCN(/N=C/c3ccc(O)c(O)c3)CC2)cc1,"inconclusive: 28.2 µM [inhibitor, partial curve, poor fit]",–
CCn1c(C(=O)N2CCCC(C(=O)NCCc3ccc(C)cc3)C2)cc2sccc21 (stereo unspecified),active: 35.5 µM,–
Nc1ccc2[nH]c(=S)sc2c1,"inconclusive: 14.1 µM [inhibitor, partial curve, poor fit]",–
CC(=O)OC1CCC2(C)C(=CCC3C2CCC2(C)C3CC3OC4(CCC(C)CN4)C(C)C32)C1 (stereo unspecified),–,inactive: 1.88%
N#CCCN(Cc1ccccc1)C(=S)NC(=O)c1ccccc1,"inconclusive: 31.6 µM [inhibitor, partial curve]",–
OCc1c[nH]c(=S)n1CCOc1cccc(C(F)(F)F)c1,"inconclusive: 2 µM [inhibitor, full curve, poor fit]",–
O=C(/C=C(\O)c1ccc(Cl)cc1)C(=O)NNC(=O)C(O)(c1ccccc1)c1ccccc1,"inconclusive: 50.1 µM [inhibitor, single point]",–
CCOc1cc(C2CC(=O)N3CN(C4CCCCC4)CSC3=C2C#N)ccc1O (stereo unspecified),"inconclusive: 17.8 µM [inhibitor, partial curve, poor fit]",–
CCCCC1(C)NC(=S)N2N1C(=S)NC2(C)CCCC (stereo unspecified),"inconclusive: 5.01 µM [inhibitor, full curve, poor fit]",–
COc1cccc2c1SCc1ccccc1C2CC(N)=O (stereo unspecified),"inconclusive: 17.8 µM [inhibitor, partial curve, poor fit]",–
O=C(O)c1ccc(Nc2nc(-c3ccccc3)nc3ccccc23)cc1,"inconclusive: 44.7 µM [inhibitor, single point]",–
CCOc1ccc2c(c1)nc(SCC(=O)c1ccc(Br)s1)n2C,–,inactive: -27.3%
O=C(O)c1cccc(-n2cccc2/C=C/[N+](=O)[O-])c1,"inconclusive: 22.4 µM [inhibitor, partial curve]",–
O=C1NC(=O)N(c2ccc(Cl)cc2)C(=O)/C1=C\c1ccc(Sc2nc3ccccc3[nH]2)o1,"inconclusive: 35.5 µM [inhibitor, single point]",–
CC(C)COC(=O)Nc1nnc(Cc2ccccc2)s1,"inconclusive: 50.1 µM [inhibitor, single point]",–
CCOc1cc(C)c(S(=O)(=O)NC2CC(C)(C)NC(C)(C)C2)cc1C,"inconclusive: 1 µM [inhibitor, full curve]",–
O=C(O)c1cc(N/N=C/c2ccc(N3CCOCC3)s2)ccc1Cl,"inconclusive: 12.6 µM [inhibitor, partial curve]",–
CCOc1ccc(C(O)c2nccn2C)cc1 (stereo unspecified),–,inactive: -4.43%
CCCCc1nnc(NC(=O)C2=COCCO2)s1,–,inactive: 5.5%
C[C@@H]1CN([C@@H](C)CO)C(=O)c2cc(C#CC3CCCCC3)cnc2O[C@@H]1CN(C)S(=O)(=O)c1ccc(F)cc1,"inconclusive: 50.1 µM [inhibitor, single point]",–
S=c1[nH]nc(-c2ccncc2)n1/N=C/c1ccccc1,"inconclusive: 7.08 µM [inhibitor, partial curve, poor fit]",–
O=C1NC(=O)C(=Cc2ccc(-c3cc(Cl)ccc3[N+](=O)[O-])o2)C(=O)N1,active: 17.8 µM,–
